# In PMC4336329 (PLoS ONE, 2015):
# Among all 310,000 compounds or so, about 2,200 (0.71%) showed an effect of 50% or more. Effects have a minus sign here. The list shows a part of the results.
# Molecular target: human ether-à-go-go-related gene (hERG) potassium channel (human, UniProt Q12809)
# Assay: primary screen, population patch clamp on CHO cells stably expressing hERG
# Sequence of human ether-à-go-go-related gene (hERG) potassium channel (Q12809 whole entry, looked up): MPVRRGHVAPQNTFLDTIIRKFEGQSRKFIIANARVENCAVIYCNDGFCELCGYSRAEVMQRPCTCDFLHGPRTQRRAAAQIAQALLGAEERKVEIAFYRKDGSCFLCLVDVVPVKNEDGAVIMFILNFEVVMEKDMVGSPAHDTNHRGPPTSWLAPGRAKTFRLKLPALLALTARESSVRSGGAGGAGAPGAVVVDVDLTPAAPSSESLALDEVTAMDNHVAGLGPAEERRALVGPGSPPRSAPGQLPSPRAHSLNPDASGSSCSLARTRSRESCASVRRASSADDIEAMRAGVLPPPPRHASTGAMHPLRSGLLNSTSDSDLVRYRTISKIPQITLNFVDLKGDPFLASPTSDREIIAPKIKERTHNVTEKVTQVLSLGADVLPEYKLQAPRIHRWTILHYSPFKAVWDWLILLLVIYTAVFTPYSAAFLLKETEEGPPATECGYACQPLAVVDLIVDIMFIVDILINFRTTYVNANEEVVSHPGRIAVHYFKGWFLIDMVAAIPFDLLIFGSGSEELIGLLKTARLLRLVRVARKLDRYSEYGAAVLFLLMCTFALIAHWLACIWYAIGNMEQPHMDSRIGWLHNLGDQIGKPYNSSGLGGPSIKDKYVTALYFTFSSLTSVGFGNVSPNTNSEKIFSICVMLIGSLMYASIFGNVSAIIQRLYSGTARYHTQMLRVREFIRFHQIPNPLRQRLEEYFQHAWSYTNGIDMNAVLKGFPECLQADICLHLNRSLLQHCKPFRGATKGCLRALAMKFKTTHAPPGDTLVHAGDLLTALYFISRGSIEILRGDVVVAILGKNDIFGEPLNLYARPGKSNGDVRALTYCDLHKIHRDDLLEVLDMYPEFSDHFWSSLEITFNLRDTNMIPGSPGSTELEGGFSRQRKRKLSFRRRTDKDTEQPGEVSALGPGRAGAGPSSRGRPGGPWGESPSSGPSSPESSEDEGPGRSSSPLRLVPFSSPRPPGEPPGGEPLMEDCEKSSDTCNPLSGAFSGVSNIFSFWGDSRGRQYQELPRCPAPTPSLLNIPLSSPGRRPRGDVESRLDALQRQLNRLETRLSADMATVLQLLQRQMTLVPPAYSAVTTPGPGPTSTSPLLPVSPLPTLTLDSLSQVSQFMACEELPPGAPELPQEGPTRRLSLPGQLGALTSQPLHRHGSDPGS
row,Compound,"hERG current change (%, negative = inhibition) at 1uM [%]"
1,CN1C(=O)c2ccccc2Sc2ccc(NC(=O)NC3CC3)cc21,5.34
2,Cc1ccccc1NC(=O)Cn1cnc2c(oc3nc4c(cc32)CCCC4)c1=O,11.3
3,COc1ccccc1N1CCN(C(=O)c2cc(N3C(=O)C4C5CCC(C5)C4C3=O)ccc2Cl)CC1 (stereo not drawn),5.71
4,Cc1ccc(NC(=O)C2CCN(S(=O)(=O)c3ccc4c(c3)CCCC(=O)N4)CC2)c(Br)c1,1.67
5,CN(C)C(C)(C)C#CCC(c1ccccc1)c1ccccc1.Cl,5.49
6,CCc1noc(C)c1C(=O)N1CCN(c2cccc(C)c2C)CC1,-3.77
7,CC1CCCN(c2ccc(C(=O)NCCc3ccccc3)cn2)C1 (stereo not drawn),-5.24
8,CC(=O)Nc1cccc(OCC(=O)NS(=O)(=O)c2ccc(Cl)cc2)c1,12.2
9,O=C(CSc1nnc(SCc2cccc3ccccc23)s1)N=Nc1c(O)[nH]c2ccccc12,15.1
10,CCn1c(SCC(=O)c2ccc(O)c(O)c2)nnc1-c1ccccc1OC,0.108
11,O=C(CSc1nnc(COc2ccccc2Cl)o1)NC(=O)NC1CCCC1,7.23
12,COc1ccc(C(=O)CN2C(=O)NC(C)(c3ccccc3)C2=O)cc1OC (stereo not drawn),3.32
13,O=C(COc1ccc([N+](=O)[O-])cc1)Nc1ccccc1C(=O)NC1CC1,9.83
14,Cc1ccccc1NC(=O)COc1ccc(S(=O)(=O)N2CCCC2)cc1C,15
15,COCC(=O)N1CCCC(N(C)CCc2ccc(OC)c(OC)c2)C1 (stereo not drawn),14.6
16,O=C(CC1Sc2ncnn2C1=O)Nc1ccc(Br)cc1 (stereo not drawn),8.98
17,CCc1cc2cc(C)cc(C)c2nc1SCC(=O)N1CCCC1,14.9
18,O=C(CO/N=C/c1ccc2c(c1)OCO2)Nc1cccc(Br)c1,10.7
19,Cc1c(C(=O)NCc2ccccn2)oc2ccccc12,9.86
20,O=C1c2cccc3cccc(c23)C(=O)N1OS(=O)(=O)c1ccc(Br)cc1,12.3
21,COc1cc(OC)c(S(=O)(=O)Nc2ccccc2N2CCCCC2)cc1NC(C)=O,14.7
22,COC(=O)c1ccccc1NC(=O)c1cc(C)no1,15.6

row,Compound,"hERG current change (%, negative = inhibition) at 1uM [%]"
1,O=C(CN1C(=O)c2ccccc2S1(=O)=O)c1ccc(F)c(F)c1,7.38
2,Cc1nn(Cc2ccccc2)c(Cl)c1/C=C/C(=O)OCC(=O)N(C)C1CCS(=O)(=O)C1 (stereo not drawn),11
3,O=C(NCc1ccco1)c1ccccc1NS(=O)(=O)c1ccc(Br)s1,2.22
4,C[C@H]1C(=O)N(C)CCN1Cc1cn(C)nc1-c1ccc(Oc2ccccc2)cc1,4.43
5,S=C(NCc1ccncc1)Nc1ccccc1,7.34
6,O=C/C=C/c1coc2ccc3ccccc3c2c1=O,14.9
7,O=C(CSc1nc2ccccc2o1)NC1CCCC1,3.13
8,CCC(C)[C@H](NC(=O)[C@H](Cc1ccccc1)n1c(=O)[nH]c2ccccc2c1=O)C(=O)NCC1CCC(C(=O)O)CC1 (stereo partly drawn),14.5
9,O=C(c1cccc(NS(=O)(=O)c2cccc([N+](=O)[O-])c2)c1)N1CCOCC1,4.34
10,NC(=O)CSc1nc2ccccc2c(=O)n1CCc1ccccc1,7.56
11,O=C(NNc1c2ccccc2nc2ccccc12)c1cccc(O)c1,7.03
12,Cc1ccc(C(=O)Nc2cccnc2Cl)cc1Cl,15.7
13,Cc1cccc(C(=O)OCC(=O)NCCCc2ccccc2)c1O,11
14,COc1ccc(NC(=O)c2cn(CCC#N)nc2-c2ccc(OC)c(OC)c2)cc1,8.84
15,CC(C)CNC(=O)c1cccc(NC(=O)COc2ccc([N+](=O)[O-])cc2)c1,-9.4
16,Cc1cccc(C(=O)O/N=C(\N)Cc2ccc([N+](=O)[O-])cc2)c1,-12.9
17,Nn1c(Nc2ccc(Cl)cc2)nncc1=O,16
18,Cc1ccc(O)c(C(=O)/C=C/c2ccc3c(c2)OCCO3)c1,9.64
19,CCOC(=O)C1CCCCN1Cc1ccc(F)c(Br)c1 (stereo not drawn),-0.105
20,O=C(CSc1nnc2c(Cl)cc(C(F)(F)F)cn12)N(Cc1ccccc1)Cc1ccccc1,1.3
21,COc1ccccc1-c1nnc2sc(-c3ccc(N(C)C)cc3)nn12,2.77
22,O=C(CCn1c(=S)oc2ccccc21)Nc1cccc(O)c1,23.4

row,Compound,"hERG current change (%, negative = inhibition) at 1uM [%]"
1,CC(C)(Oc1ccc(Cl)cc1)C(=O)NNC(=O)c1ccc(Br)o1,11.5
2,C=C(C)CN1CCN(S(=O)(=O)c2ccc(C)c(N(C)S(=O)(=O)c3ccc(C)cc3)c2C)CC1,14
3,O=C(Nc1ccc(O)c(C(=O)O)c1)c1ccc2c(c1)C(=O)N(CC1CCCO1)C2=O (stereo not drawn),8.61
4,CC(=O)Nc1ccc(NC(=O)C(C)OC(=O)/C=C/c2cccs2)cc1 (stereo not drawn),5.49
5,O=C(Nc1nnc(-c2ccc(Cl)cc2)o1)c1cccc(N2C(=O)CCC2=O)c1,10.4
6,CC(C)C(=O)N1CCC(c2nc(-c3ccc(S(=O)(=O)N4CCCC4)cc3)no2)CC1,9.81
7,Cc1cc(C)c(C2C(C#N)=C(N)Oc3n[nH]c(C)c32)cc1CN1CCCC1 (stereo not drawn),3.82
8,Cc1cccnc1NC(=O)Nc1ccc(Cl)cc1,13.2
9,Cc1cccc(C(=O)N[C@H](C(=O)Nc2nc(C)cs2)C(C)C)c1,8.84
10,COc1ccc(C(=O)NCC(c2cccnc2)N2CCN(c3ccccc3)CC2)cc1OC (stereo not drawn),10.6
11,COC(=O)c1ccc(NC(=O)CSc2nnc(COc3ccccc3)n2C)cc1,14.8
12,COc1ccccc1NS(=O)(=O)c1cccc(C(=O)N2CCCCCCC2)c1,-0.11
13,COC(=O)C1=C(C)N(C)C(C)=C(C(=O)OC)C1c1ccc(C(=O)OC)cc1,14.3
14,C=CC[C@@H]1C=C[C@H](O/N=C/c2ccc(C(=O)N3[C@H](c4ccc(C)cc4)[C@@H](C)CC[C@H]3C(=O)OC)cc2)[C@@H](CO)O1,9.16
15,O=C(c1ccc(Br)o1)N1CCN(C/C=C/c2ccccc2)CC1,-10.4
16,CN(C)/C=C/C(=O)c1ccc2noc(-c3ccccc3)c2c1,-11.6
17,Cc1cc(=O)oc2cc(OC(C)C(=O)NCC3CCC(C(=O)O)CC3)ccc12 (stereo not drawn),-6.84
18,COc1ccc(C2c3ccsc3CCN2C(=O)C(C)(C)C)cc1 (stereo not drawn),13.4
19,COc1cc(C(=O)NCC(=O)N/N=C/c2cccnc2)cc(OC)c1OC,8.35
20,Cc1ccc(CN2CC(C(=O)NNC(=O)c3ccc(F)cc3)CC2=O)cc1 (stereo not drawn),12.7
21,CN(C(=O)COC(=O)C1c2ccccc2Oc2ccccc21)C1CCS(=O)(=O)C1 (stereo not drawn),13
22,O=C(NCc1ccccc1Cl)NCc1ccccc1Cl,10.8

row,Compound,"hERG current change (%, negative = inhibition) at 1uM [%]"
1,Cc1oc2ccc(OCc3ccc(F)cc3)cc2c1C(=O)O,2.14
2,O=C(CCN1CCCCC1)N/N=C/c1c[nH]c2ccccc12,8.37
3,CCCCc1nnc(NC(=O)C(C)Sc2nc(N)cc(=O)[nH]2)s1 (stereo not drawn),1.63
4,COc1cccc(C(=O)N/N=C/C(Br)=C/c2ccccc2)c1,-4.43
5,COc1ccc(NC(=O)CCCN2C(=O)CN(C)C2=O)c(OC)c1,4.31
6,Cc1ccc(C)c(S(=O)(=O)N2CCCCC2CCNC(=O)C(=O)NCc2ccncc2)c1 (stereo not drawn),-5.08
7,N#CC1(NC(=O)CSc2n[nH]c(-c3ccccc3)n2)CCCCC1,3.94
8,CC(C)Cc1nnc(NC(=O)CSc2nc(O)c(Cc3ccccc3)c(=O)[nH]2)s1,21.9
9,O=C(CSc1nc2ccccc2n1CC(=O)N1CCCC1)Nc1ccc2c(c1)OCO2,-10.9
10,CC(C)(C)c1ccccc1NC(=S)NC1CCCCC1,5.01
11,COc1ccc(CC(=O)NCC(=O)NC(Cc2ccccc2)C(=O)O)cc1 (stereo not drawn),15
12,COCCN(Cc1cc2cc(C)ccc2[nH]c1=O)S(=O)(=O)c1ccc(Cl)cc1,15.2
13,CCOCCCNC(=O)C1CCN(c2cc(C)nc3c(-c4ccc(OC)c(OC)c4)c(C)nn23)CC1,1.81
14,O=C1CS/C(=N\C(=O)N2c3ccccc3Sc3ccccc32)N1,13.6
15,C=CCOC(=O)c1[nH]c2c(c1C)C(=O)CC(c1ccco1)C2 (stereo not drawn),-1.07
16,O=C(O)CCC(=O)NCC1OCCc2ccccc21 (stereo not drawn),13.7
17,O=C(NCCc1ccccc1)c1cc(=O)c2ccccc2o1,4.61
18,CCC(=O)Nc1cc(NC(=O)CSc2ncc(-c3ccc(F)cc3)n2Cc2ccco2)ccc1C,16.2
19,CSc1ccc(NC(=O)CC(C)=O)cc1,-4.18
20,COc1cc(/C=N/Nc2nc3ccccc3s2)ccc1OC(=O)c1ccccc1F,7.42
21,Cc1ccc(SCCC(=O)NC2CC2)cc1,10.7
